{"source": "patent US8012466B2", "about": "“Immunogenic compositions for activating γδ T cells” (priority 2008, dated 2011)", "key": {"Vγ2Vδ2 T cells [1]": {"system": "Vγ2Vδ2 T cells"}, "Vγ2Vδ2 T cells [2]": {"system": "Vγ2Vδ2 T cells", "test": "In vitro HMBPP response of rhesus monkey PBMC", "assay_type": "cell-based", "settings": "PBMC stimulated with 100 nM HMBPP", "text": "FIG. 7. Characteristics of rhesus monkey Vγ2Vδ2 T cells. (A). Large in vitro HMBPP responses by Vγ2Vδ2 T cells from most rhesus monkeys. […] (B). Uniform memory subset distribution of rhesus monkey Vγ2Vδ2 T cells. PBMC from 22 monkeys were stained for Vδ2, […], and […]. Vδ2^+ cells were divided in 4 groups based on their expression of CD28 and CD27.\nMemory subset distribution and HMBPP response of rhesus monkey Vγ2Vδ2 T cells—In preparation for in vivo immunization of rhesus monkey, we screened 33 monkeys for their ability to respond to HMBPP in vitro, γδ T cells levels, V gene expression, and memory subset distribution. […] Like human Vγ2Vδ2 T cells, monkey Vγ2Vδ2 T cells also could be divided into 4 subsets based on expression of CD28 and CD27 (TEarly=central memory=CD28^+27^+, TEarly CD27−=CD28^+27^−, TIntermediate=CD28^−27^+, and TLate CD45RA+=CD28^−27^−). However, unlike human donors, there were very few monkeys with a predominance of the TLate RA subset. Moreover, whereas Vγ2Vδ2 T cells constituted 73% of human adult γδ T cells, Vγ2Vδ2 T cells constituted only 29% of monkey γδ T cells consistent with our earlier study. […]"}}, "data": [{"compound": "IL-15: γC cytokine tested in place of IL-2", "values": [{"measurement": "support of Vγ2Vδ2 T cell expansion by cytokine", "setting": "Vγ2Vδ2 T cells [1]; human memory Vγ2Vδ2 T cells, compared with IL-2 and IL-7, data not shown", "value": "able to support homeostatic expansion of Vγ2Vδ2 T cells in the absence of antigen and higher levels of expansion of Vγ2Vδ2 T cells with HMBPP"}]}, {"compound": "C/C(=C\\COP(=O)(O)OP(=O)(O)O)CO", "note": "[HMBPP, (E)-4-hydroxy-3-methyl-but-2-enyl pyrophosphate]", "values": [{"measurement": "Expansion of Vγ2Vδ2 T cells", "setting": "Vγ2Vδ2 T cells [2]", "value": "> 40", "unit": "%"}]}, {"compound": "O=P(O)(O)C(O)(Cc1cccnc1)P(=O)(O)O", "note": "[risedronate]", "values": [{"measurement": "in vivo expansion of Vγ2Vδ2 T cells by direct immunization", "setting": "Vγ2Vδ2 T cells [1]; unactivated PBMC, rIL-2 5000 IU i.p. every other day, day 9", "value": "also expanded Vγ2Vδ2 T cells"}]}]}
